# From paper PMC6919601, “Identification of Plasmodium dipeptidyl aminopeptidase allosteric inhibitors by high throughput screening” (PLoS ONE, 2019)
# “And” between values parts separate entries of the source, which are not always exact repeats. Equal entries are not always repeated. Screen size: about 110,000 compounds; about 230 (0.21%) showed an effect of 50% or more. Some of the results follow.
# Target: DPAP1 (Plasmodium falciparum, UniProt Q8IIJ9)
# Experiment: primary screen, percent inhibition; read by cleavage of a fluorogenic dipeptide substrate; higher = more effect of the substance
# Design: species or system P. falciparum D10 trophozoite lysates; single well
# 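Further: 30 min substrate incubation versus DMSO and 10 µM JCP410 controls.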
# Sequence of DPAP1 (Q8IIJ9 whole entry, looked up): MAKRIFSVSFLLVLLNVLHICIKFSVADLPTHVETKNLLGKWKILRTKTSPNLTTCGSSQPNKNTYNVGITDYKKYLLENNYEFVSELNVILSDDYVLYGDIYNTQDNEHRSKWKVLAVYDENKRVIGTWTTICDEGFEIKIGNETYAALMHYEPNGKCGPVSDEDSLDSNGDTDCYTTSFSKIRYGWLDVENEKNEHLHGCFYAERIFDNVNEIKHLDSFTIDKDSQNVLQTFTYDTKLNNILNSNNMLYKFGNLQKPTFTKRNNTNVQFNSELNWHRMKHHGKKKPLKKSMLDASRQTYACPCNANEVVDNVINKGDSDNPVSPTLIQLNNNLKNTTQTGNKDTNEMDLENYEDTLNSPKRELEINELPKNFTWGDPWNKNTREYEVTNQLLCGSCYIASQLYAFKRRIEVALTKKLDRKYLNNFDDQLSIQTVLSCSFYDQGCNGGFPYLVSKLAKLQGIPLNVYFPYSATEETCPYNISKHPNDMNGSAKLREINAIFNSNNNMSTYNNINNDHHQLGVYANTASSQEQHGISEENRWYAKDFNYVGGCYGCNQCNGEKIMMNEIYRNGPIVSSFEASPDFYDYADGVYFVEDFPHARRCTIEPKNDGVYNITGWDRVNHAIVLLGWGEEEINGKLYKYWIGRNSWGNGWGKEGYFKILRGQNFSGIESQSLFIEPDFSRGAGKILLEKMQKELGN
row,SMILES,% Inhibition @ 10 uM
1,COc1cc(NC(=O)C23CC4CC(C2)CC(n2cnc(Cl)n2)(C4)C3)c(C(C)=O)cc1OC,14.4%
2,Cc1nc2cc(C(=O)c3ccccc3)ccc2nc1O,-5.44%
3,CCOC(=O)c1c(NC(=O)CN2CCCCC2)sc2c1CCC2,3.32%
4,N=C1/C(=C\c2ccc(Sc3cccc4ccccc34)o2)C(=O)N=C2SC=NN12,2.14%
5,CC(C)CCNc1nc2ccccc2n2cnnc12,-4.21%
6,CC1CCc2cc(F)ccc2N1C(=O)/C=C/c1ccc(Cl)c(Cl)c1 (stereo not drawn),-4.03%
7,CNCC(O)CN1CCN(c2ccc([N+](=O)[O-])cc2)CC1 (stereo not drawn),2.33%
8,CC1=C(C#N)C(c2ccc3c(c2)OCO3)C2=C(O)CC(c3ccccc3)CC2=N1 (stereo not drawn),0.751%
9,COCCN1C(=O)c2ccccc2C(C(=O)NCCN2CCOCC2)C1c1cn(C)c2ccccc12 (stereo not drawn),3.51%
10,O=C(c1nn2c(c1Cl)NC(c1cccs1)CC2C(F)(F)F)N1CCCC1 (stereo not drawn),-1.06%
11,Cc1ccc(-c2c(C)n3c4c(=O)n(C)c(=O)n(C)c4nc3n2C(C)C)cc1,-1.85%
12,CCc1ccc2ncc(S(=O)(=O)c3ccc(OC)cc3)c(N(CC)CC)c2c1,-3%
13,CCOC(=O)c1c(NC(=O)Cc2ccc(OC)cc2)sc(C(=O)NC2CCCCC2)c1C,0.565%
14,CC1CN(Cc2ccc(F)cc2F)CC(C)O1 (stereo not drawn),-0.833%
15,CCCC(=O)n1nc(-c2cccnc2)nc1NCc1ccc(F)cc1,-2.92%
16,Cc1nc2c(C(=O)N3CCCC(C)C3)cnn2c(C)c1Cc1ccc(Cl)cc1 (stereo not drawn),-0.519%
17,O=C(CCNS(=O)(=O)c1cccs1)NC1CCN(Cc2ccccc2)CC1,4.79%
18,Cc1nc2c(C(=O)n3ccnc3)cnn2c(C)c1Cc1ccccc1Cl,-0.406%
19,CCc1cccc(CC)c1NC(=O)C1CCN(S(C)(=O)=O)CC1,-9.82%
20,CCCN(CCC)c1nc(N)nc(-c2cc(Cl)ccc2OC)n1,-2.29%
21,CCOC(=O)c1ccc(-n2nnnc2C(C)(CN2C(=O)c3ccccc3C2=O)NC)cc1 (stereo not drawn),7.99%

row,SMILES,% Inhibition @ 10 uM
1,O=C(c1ccc(F)cc1)N1CCN(Cc2cccc3ccccc23)CC1,-1.19%
2,Cc1c(Br)c(C(=O)Nc2sc(C(C)C)cc2C(N)=O)nn1C,-1.36%
3,CCOc1ccc(N2C(=O)CC(Sc3nc(O)c(CC)c(O)n3)C2=O)cc1 (stereo not drawn),-0.318%
4,Cc1oc(CSc2nnc(-c3ccccc3)n2C)cc1C(=O)O,-2.39%
5,CC1=NOC(=O)/C1=C\c1ccc2c(c1)OCO2,1.63%
6,CCOC(=O)c1cc2c(nc1C)c(C)cc1c(C)c(C)[nH]c12,1.76%
7,O=C1c2ccccc2C(=O)N1c1cccc(Cl)c1Cl,3.91%
8,Cc1ccnc(NC(=O)c2ccc(C(C)(C)C)cc2)n1,2.93%
9,c1ccc(Cc2nc3ccccc3o2)cc1,-0.0369%
10,CC1=C(C(=O)N2CCCCC2)C(c2ccc(Cl)cc2)C2=C(O)CCCC2=N1 (stereo not drawn),-1.48%
11,Cc1onc(-c2ccccc2)c1C(=O)Nc1nc2c(s1)CCCC2,-1.49%
12,C=CCn1cnc2c1c(=O)[nH]c(=O)n2C,-1.72%
13,O=C(Nc1ccccn1)C(NS(=O)(=O)c1cccc2nsnc12)c1ccccc1 (stereo not drawn),0.317%
14,O=C(Cn1cc2c(n1)CCCC2)N1CCN(Cc2ccccc2)CC1,0.137%
15,COc1ccc(S(=O)(=O)N2CCN(S(=O)(=O)c3ccccc3)CC2)cc1,-3.4%
16,Cc1cccn2cc(CNC(=O)Cc3ccc(Cl)cc3)nc12,0.00665%
17,CCC(C)C(NC(=O)c1ccc(Cl)cc1Cl)C(=O)O (stereo not drawn),-7.14%
18,CC[C@H](C)C(NC(=O)C1CCNCC1)C(=O)NC(CCc1ccccc1)C(=O)CO (stereo partly drawn),-5.64% and 3.66%
19,Cc1nn(-c2ccccc2)c2c1N(CCCC(=O)NCCC1=CCCCC1)C(=O)CS2,1.63%
20,CC(C)(C)c1ccc(OCc2nn3c(C(F)(F)F)nnc3s2)cc1,-1.07%
21,O=C(O)c1[nH]c2ccccc2c1/C=N/Cc1ccccc1Cl,-0.406%

row,SMILES,% Inhibition @ 10 uM
1,Cc1ccc(C(=O)N/C(=C/c2ccco2)C(=O)NC2CCCCC2)cc1,-5.32%
2,O=C(CN1C(=O)C2C3CCC(C3)C2C1=O)Nc1cccc(C(=O)O)c1 (stereo not drawn),3.29%
3,Cc1cc(C)c(NC(=O)/C=C2\NC(C)(C)Cc3ccccc32)c(C)c1,1.87%
4,Cc1ccc(C2C(C(=O)c3ccc4c(c3)OCCO4)=C(O)C(=O)N2CC2CCCO2)cc1 (stereo not drawn),-0.473%
5,c1ccc(N2CCN(c3ncnc4sc5c(c34)CCCC5)CC2)nc1,-3.63%
6,Fc1ccccc1N1CCN(C2CCSC2)CC1 (stereo not drawn),-0.0908%
7,CC(C)OCCCNC(=O)C(NC(=O)c1ccc(C23CC4CC(CC(C4)C2)C3)cc1)C(C)C (stereo not drawn),-0.972%
8,CC(=O)c1ccc(N2CCN(C(=O)c3cc(F)c(F)cc3C)CC2)c(F)c1,-0.0619%
9,Cc1cccc(-c2nc(O)c3c4c(sc3n2)CCCC4)c1,39.3%
10,CC(C)C[C@H](NC(=O)c1ccccc1NC(=O)OC(C)(C)C)C(=O)NCC#N,0.174%
11,CNc1nc2c(-c3ccc(Cl)cc3)nnn2c2ccccc12,-1.21%
12,N#CCNC(=O)[C@H](CC1CCCCC1)NC(=O)c1ccc(Br)s1,-3.49%
13,Cc1ccccc1OCC(=O)Nc1ncc(Cc2ccc(Br)cc2)s1,-1.26%
14,COc1ccccc1N1CCN(C(=O)c2ccccc2)CC1,3.48%
15,Cc1nc(O)c2c3c(sc2n1)CCCCC3,0.00773%
16,COc1cccc(CNC(=O)C(C)n2nc(C)n3c(cc4occc43)c2=O)c1 (stereo not drawn),1.38%
17,Cc1ccsc1CN(Cc1ccco1)C(=O)COc1ccc(Cl)cc1,6.92%
18,CCOC(=O)c1ccc(OCC2c3cc(OC)c(OC)cc3CCN2C(=O)C2CCCO2)cc1 (stereo not drawn),4.15%
19,COc1ccc(OCC(=O)NCCSc2ccccn2)cc1,-5.51%
20,CC(C)CCn1c(CCCNC(=O)c2ccco2)nc2ccccc21,-1.22%
21,Cc1cc(Oc2nc3ccccn3c(=O)c2/C=C(\C#N)C(=O)NCC2CCCO2)ccc1Cl (stereo not drawn),2.16%
